# Measurements as given in the supplement of paper PMC3334620.
# The full ranking holds about 33,000 sequences; the median of “E-score (-0.5 to 0.5)” is about -0.053, and the highest 2% start at about 0.37. The list shows a part of the results.
# Molecular target: Hap1 (UniProt P0CE41)
# Assay: PBM E-score (8-mer binding enrichment) (E-score (-0.5 to 0.5)); higher = stronger / more preferred TF binding; most listed sequences are background and not binding sites
# Details: protein concentration: 200 nM; construct: GST-DNA-binding domain
# How it was run: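 PURExpress in vitro transcription/translation supplied GST-tagged yeast transcription factors, either full-length or DNA-binding domain. Applied at about 100-200 nM to universal all-10-mer Agilent arrays double-stranded by primer extension, the bound protein was detected with fluorescent anti-GST. E-scores, modified Wilcoxon-Mann-Whitney statistics, were given by the Universal PBM Analysis Suite to ungapped eight-base words pooled with their reverse complements after masliner normalisation.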
# Sequence of UniProt P0CE41 (P0CE41 whole entry): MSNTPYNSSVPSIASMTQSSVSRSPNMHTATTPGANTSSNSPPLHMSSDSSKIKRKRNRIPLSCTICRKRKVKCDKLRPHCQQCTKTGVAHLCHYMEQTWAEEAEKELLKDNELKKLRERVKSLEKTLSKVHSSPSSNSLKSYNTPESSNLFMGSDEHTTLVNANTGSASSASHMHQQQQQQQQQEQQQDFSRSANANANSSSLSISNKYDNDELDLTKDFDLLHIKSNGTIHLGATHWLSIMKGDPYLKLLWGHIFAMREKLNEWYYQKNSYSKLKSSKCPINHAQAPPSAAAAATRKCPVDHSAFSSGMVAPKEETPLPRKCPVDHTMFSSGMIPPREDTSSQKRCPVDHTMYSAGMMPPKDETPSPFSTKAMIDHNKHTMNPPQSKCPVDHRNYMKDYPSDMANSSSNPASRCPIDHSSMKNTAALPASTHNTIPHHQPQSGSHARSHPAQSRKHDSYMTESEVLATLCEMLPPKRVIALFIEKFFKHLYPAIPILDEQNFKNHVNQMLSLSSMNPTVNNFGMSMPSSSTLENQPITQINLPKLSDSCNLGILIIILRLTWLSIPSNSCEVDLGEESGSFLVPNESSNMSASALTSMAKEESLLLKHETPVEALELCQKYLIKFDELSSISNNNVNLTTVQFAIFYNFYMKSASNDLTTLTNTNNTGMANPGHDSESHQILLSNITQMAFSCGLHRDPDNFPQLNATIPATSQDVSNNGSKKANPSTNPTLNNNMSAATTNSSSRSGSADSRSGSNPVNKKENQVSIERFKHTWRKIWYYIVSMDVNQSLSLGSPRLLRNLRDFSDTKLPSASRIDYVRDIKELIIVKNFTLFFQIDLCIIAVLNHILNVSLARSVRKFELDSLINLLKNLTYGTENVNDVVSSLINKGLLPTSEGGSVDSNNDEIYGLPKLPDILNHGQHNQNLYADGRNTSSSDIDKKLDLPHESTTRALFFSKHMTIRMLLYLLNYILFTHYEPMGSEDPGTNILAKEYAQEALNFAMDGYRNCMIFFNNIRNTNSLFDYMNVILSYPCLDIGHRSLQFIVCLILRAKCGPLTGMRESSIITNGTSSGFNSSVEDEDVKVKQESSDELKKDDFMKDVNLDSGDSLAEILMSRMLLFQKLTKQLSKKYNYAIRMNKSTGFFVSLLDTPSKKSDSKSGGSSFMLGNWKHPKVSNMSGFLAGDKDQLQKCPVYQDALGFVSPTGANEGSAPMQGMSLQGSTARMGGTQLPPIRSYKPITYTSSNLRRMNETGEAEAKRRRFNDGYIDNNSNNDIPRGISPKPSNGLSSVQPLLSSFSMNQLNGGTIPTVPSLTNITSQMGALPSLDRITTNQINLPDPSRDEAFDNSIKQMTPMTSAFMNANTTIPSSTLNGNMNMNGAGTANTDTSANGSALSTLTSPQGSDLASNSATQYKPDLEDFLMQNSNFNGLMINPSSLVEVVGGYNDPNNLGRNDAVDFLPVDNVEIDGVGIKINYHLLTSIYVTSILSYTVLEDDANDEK
row,Sequence,PBM E-score
1,CGTATTGC,0.153
2,ACGTTGGC,-0.134
3,CTTGGACC,-0.0592
4,GGGGTTAC,0.218
5,CGGGAATA,0.458
6,AGCAGAAC,-0.0496
7,ACCTTCCC,-0.0752
8,CTAGCACC,0.0163
9,AAACGCAG,-0.119
10,AGCACTTG,-0.185
11,GACTGGTA,-0.0324
12,AAGTTCAG,-0.227
13,CGCTGACC,0.0396
14,AGTTAAGA,-0.0129
15,CCATCCAC,-0.15
16,TCATATCA,-0.128
17,AACTGATC,-0.0539
18,ATTATCAA,-0.167
19,CCGCAACG,0.216
20,ATAGGGTG,-0.24
21,GTTGGATA,-0.083
22,AGTCATCC,-0.0318
23,CATAAGGA,-0.151
24,CAGCCCGG,0.308
25,GCGCGTAC,0.196

row,Sequence,PBM E-score
1,CTCCGACA,0.291
2,ACTCTTGG,-0.22
3,AGGCTCTA,-0.199
4,CCCATCGG,0.307
5,TCAAGAGA,-0.177
6,ATCGCTCC,0.214
7,ACTGGCGA,-0.17
8,ACGACATC,-0.0465
9,CACTACCC,-0.075
10,CTGCCGAA,0.103
11,AATGGAAG,0.00758
12,ACACCGAG,0.336
13,CCTGGAAG,-0.173
14,CAGGATCG,-0.0662
15,AAAGAGAG,-0.166
16,CCCGGAAA,0.411
17,ACTAGCGC,-0.112
18,ACTAATCA,-0.0211
19,CAATTTCG,0.0837
20,CAAGAGGG,-0.274
21,AACGTATG,-0.275
22,ACCACCCG,0.199
23,CGGGAGAA,0.129
24,AGGAGTTA,0.292
25,TACGGGAA,0.231

row,Sequence,PBM E-score
1,ACCTAGTC,-0.141
2,AGGGCTAT,-0.272
3,TCACATCA,-0.0474
4,CCTCATGA,-0.0804
5,GACCACCC,-0.0841
6,TACACGAA,0.00747
7,ATCCGTTG,0.301
8,ATGGATGA,-0.114
9,AAGCCTTG,-0.255
10,ACGTAAGT,-0.0986
11,CCTATCCA,-0.26
12,ATACGATA,-0.00088
13,GCCTGGCC,0.0376
14,CCGGAGCC,0.341
15,ACCTTGAA,-0.303
16,GACTATGC,-0.194
17,ACTATGAC,-0.16
18,ATTTGTCG,0.235
19,AAATTACG,-0.0441
20,ACGAACTG,-0.105
21,AGGGATGC,-0.223
22,CTACACGA,-0.229
23,AAACATCC,0.122
24,ATGGCAAA,-0.126
25,AACATGAG,-0.215

row,Sequence,PBM E-score
1,CGCATGAA,-0.0382
2,AGAAGAAC,-0.0641
3,AATGTATC,0.0324
4,CACACACA,-0.308
5,AGGCACAT,-0.141
6,GCGTCGAA,0.0566
7,CCTGCGAA,-0.197
8,CAGCAGAA,-0.118
9,CCCATCCC,-0.0251
10,CTAACTAG,-0.0143
11,AAAACCGA,0.396
12,AGCAGGGA,-0.251
13,ATTAATCA,-0.00067
14,TCATGACA,-0.0426
15,GAACGACC,-0.311
16,CCTGAAGA,-0.137
17,TCCCGTCA,0.0354
18,CTCCACAG,-0.346
19,AATGTCTG,-0.0594
20,AATCGAGG,-0.13
21,CGCGATGA,0.088
22,CAAGTGAG,-0.238
23,AATAGAGT,-0.234
24,CAATGTAA,-0.0714
25,TAAAACGA,-0.224

row,Sequence,PBM E-score
1,ACAACCAG,-0.141
2,ATGTACCC,-0.00709
3,TGCTTCAA,-0.0729
4,ACATTCCA,-0.132
5,ATCCCAGA,-0.155
6,CCACAGAG,-0.138
7,CCAAAACA,-0.251
8,TCTATGAA,-0.115
9,ACCTGCCA,-0.122
10,GGCTGCAA,0.188
11,AGTCACAT,-0.148
12,TGTGGTAA,0.0211
13,CTCACAAC,-0.0979
14,ATCCTCGA,-0.107
15,TAATCGGA,0.317
16,CGTTAAGA,0.0629
17,CGCGAGAG,0.0872
18,ACGGAAAA,0.317
19,AACCGGAC,0.369
20,ATGGTCAC,-0.0307
21,AGGCAGTG,-0.249
22,ACCTCTCG,-0.0768
23,ATGTAGCG,-0.0634
24,ATAGAGGA,-0.186
25,AGGCCGCC,-0.0366

row,Sequence,PBM E-score
1,ACCGGCCA,0.284
2,GAGATCCC,0.0892
3,AATGGATC,0.0386
4,GAGATAAA,0.237
5,ACCTCAGA,-0.117
6,AGTAACAT,0.0104
7,ATGGACGC,0.00214
8,AGACGTAG,-0.262
9,GATCCTCA,-0.0626
10,AGGGCACA,-0.191
11,AGCATGAT,-0.103
12,GGGATCCC,0.228
13,CAGTCTCA,-0.149
14,ATGCCAGC,-0.185
15,AGCTGACC,-0.0559
16,CGCGAACG,0.143
17,GAATAGGC,0.0487
18,CGGCCTCC,0.131
19,AAACGATC,-0.22
20,AAGGCCGA,0.435
21,ACCTACGC,0.00363
22,TGCCTGAA,-0.327
23,AATCTCCG,0.476
24,AGGAATAG,-0.0693
25,CTCGGCCC,0.336

row,Sequence,PBM E-score
1,ACTCACAG,-0.254
2,CTCCGATC,0.311
3,GAGGCATA,0.00364
4,CATTTCAA,-0.117
5,GCTGGAAA,0.0989
6,GGGATGAA,0.0152
7,AAAACTTC,-0.00716
8,AGTGCTTC,-0.0942
9,GAAGGTGA,0.0464
10,ACTACTGA,-0.182
11,AGCATTAC,-0.0674
12,ATAAACCA,-0.113
13,ATCGCCTC,0.00886
14,ACTGCCGG,0.279
15,AAAGTATC,0.109
16,GCTCGTTA,-0.118
17,ATAACAAC,0.00179
18,ATATTAAC,0.102
19,GCATACCC,-0.00604
20,CTCTGCCA,-0.191
21,CTCGGACA,0.415
22,CCTAACTC,-0.00719
